Source: patent US4740588A, “Novel substrate peptides” (Washington University, priority 1986, dated 1988)
Not every detail of the peptide structures is certain; ends, links or a residue may be inferred. No end group written: not given here.

The substances below were run on BC3 Hl Myristoylating Enzyme (assay: Octapeptide substrate specificity of BC3 Hl myristoylating enzyme). Conditions: post-nuclear supernatant of BC3 Hl mouse muscle cell extract; background 500-2000.
Type: biochemical

Row | Substance | Rate of Myristoylation
1 | GSSKSKPK-NH2 [Gly--Ser--Ser--Lys--Ser--Lys--Pro--Lys] | 73,788 DPM/10 Minute Assay

The substances below were run against T1, Yeast Myristoylating Enzyme (Saccharomyces cerevisiae, UniProt P14743) (assay: Peptide substrate specificity (Km, Vmax) of partially purified yeast myristoylating enzyme). Conditions: relative to Gly-Asn-Ala-Ala-Ala-Ala-Arg-Arg = 100.
T1 construct: partially purified from a crude homogenate of the cultured yeast cells; endogenous in cells; host or cells: S. cerevisiae strain JR153
T1 sequence (P14743 whole entry): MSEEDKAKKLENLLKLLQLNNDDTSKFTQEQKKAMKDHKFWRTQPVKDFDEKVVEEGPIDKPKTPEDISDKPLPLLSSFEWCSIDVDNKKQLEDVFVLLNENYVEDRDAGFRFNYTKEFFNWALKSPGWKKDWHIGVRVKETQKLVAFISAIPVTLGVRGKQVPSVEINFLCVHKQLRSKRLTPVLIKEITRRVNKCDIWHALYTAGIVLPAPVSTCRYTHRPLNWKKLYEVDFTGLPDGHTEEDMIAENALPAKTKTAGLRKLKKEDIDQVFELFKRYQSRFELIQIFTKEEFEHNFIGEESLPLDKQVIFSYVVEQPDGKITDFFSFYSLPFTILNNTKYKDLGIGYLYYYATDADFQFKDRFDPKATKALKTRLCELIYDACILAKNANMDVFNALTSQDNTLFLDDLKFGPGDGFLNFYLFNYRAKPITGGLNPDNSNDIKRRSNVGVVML
Type: biochemical, S. cerevisiae strain JR153

Row | Substance | Relative Vmax [%]
2 | GAQAAARR-NH2 [Gly--Ala--Gln--Ala--Ala--Ala--Arg--Arg] | 72
3 | GNAAAA-NH2 [Gly--Asn--Ala--Ala--Ala--Ala, Gly-Asn-Ala-Ala-Ala-Ala] | 120
4 | GNAAAARR-NH2 [Gly--Asn--Ala--Ala--Ala--Ala--Arg--Arg] | 100
5 | GNAAS-NH2 [Gly--Asn--Ala--Ala--Ser, Gly-Asn-Ala-Ala-Ser] | 40
6 | GNEAAARR-NH2 [Gly--Asn--Glu--Ala--Ala--Ala--Arg--Arg] | 47
7 | GNEASYPL-NH2 [Gly--Asn--Glu--Ala--Ser--Tyr--Pro--Leu] | 55
8 | GNFAAARR-NH2 [Gly--Asn--Phe--Ala--Ala--Ala--Arg--Arg] | 106
9 | GNRAAARR-NH2 [Gly--Asn--Arg--Ala--Ala--Ala--Arg--Arg] | 98
10 | GQAAAARR-NH2 [Gly--Gln--Ala--Ala--Ala--Ala--Arg--Arg] | 79
11 | GSAAAARR-NH2 [Gly--Ser--Ala--Ala--Ala--Ala--Arg--Arg] | 50
